This passage reports binding results from paper PMC6946706.

These are yes or no findings as the source states them, for the method shown. In cells and extracts the contact can be indirect. Some results given as binding are weak or reduced against the parent protein; the word gives no strength.

In assay [1] the target is FLAG-RepID FL (U2OS stable) (UniProt Q8WWQ0). Put plainly: co-IP; anti-FLAG IP from nuclear and chromatin-bound fractions of U2OS cells expressing RepID FL, F2–5 and Δ3 fragments; immunoblot.
For another assay, the target named is FLAG-DDB1 (human) (UniProt Q16531). Put plainly: co-IP; anti-FLAG IP from chromatin fractions of FLAG-DDB1-transfected HCT116 cells released from mitotic block at the indicated time points; immunoblot.
Assay [2] deals with BUB3 (endogenous) (human (endogenous in U2OS, HCT116, K562)) (UniProt O43684). Nature of the assay: co-IP; anti-BUB3 IP from a mixture of soluble nuclear and chromatin-bound fractions of K562 RepID WT cells fractionated by elutriation; fractions outside G2/M; immunoblot.
Assay [3] has the same target. Put plainly: co-IP; anti-BUB3 IP from lysate of asynchronized HCT116 RepID WT cells; immunoblot.
The target is the same in assay [4]. Nature of the assay: co-IP; anti-BUB3 IP from a mixture of soluble nuclear and chromatin-bound fractions of K562 RepID WT cells fractionated by elutriation; G2/M fractions; immunoblot.

As for “BUB3 (endogenous) (from UniProt O43684 1-328)”, the binding result in assay [1] is listed as “binds”.

Take “RepID (endogenous) (from UniProt Q8WWQ0 1-1821)”: the binding entry in the assay with FLAG-DDB1 (human) is reported as “binds”; in assay [2] it was “no binding (condition: elutriated fractions outside G2/M)”; in assay [3], “binds”; in assay [4], “binds”.
